# Results published in PubChem BioAssay AID1460 (National Center for Advancing Translational Sciences (NCATS), 2008).
# The whole screen tested about 270,000 compounds, of which about 5,800 (2.1%) were called active. The inconclusive results got no clear call from the source; some entries with a clear call stand among them for comparison. The call rests on the fitted dose curve; in most records, active means well fitted inhibition curve with a large enough effect; inconclusive means small, poorly fitted or top-dose-only effect; inactive means flat fitted curve, though single readings scatter. A potency beside an inconclusive call is a rough fit, not a confirmed value.
# Target: Microtubule-associated protein tau (Homo sapiens) (UniProt P10636)
# UniProt P10636, sequence (P10636 whole entry, looked up): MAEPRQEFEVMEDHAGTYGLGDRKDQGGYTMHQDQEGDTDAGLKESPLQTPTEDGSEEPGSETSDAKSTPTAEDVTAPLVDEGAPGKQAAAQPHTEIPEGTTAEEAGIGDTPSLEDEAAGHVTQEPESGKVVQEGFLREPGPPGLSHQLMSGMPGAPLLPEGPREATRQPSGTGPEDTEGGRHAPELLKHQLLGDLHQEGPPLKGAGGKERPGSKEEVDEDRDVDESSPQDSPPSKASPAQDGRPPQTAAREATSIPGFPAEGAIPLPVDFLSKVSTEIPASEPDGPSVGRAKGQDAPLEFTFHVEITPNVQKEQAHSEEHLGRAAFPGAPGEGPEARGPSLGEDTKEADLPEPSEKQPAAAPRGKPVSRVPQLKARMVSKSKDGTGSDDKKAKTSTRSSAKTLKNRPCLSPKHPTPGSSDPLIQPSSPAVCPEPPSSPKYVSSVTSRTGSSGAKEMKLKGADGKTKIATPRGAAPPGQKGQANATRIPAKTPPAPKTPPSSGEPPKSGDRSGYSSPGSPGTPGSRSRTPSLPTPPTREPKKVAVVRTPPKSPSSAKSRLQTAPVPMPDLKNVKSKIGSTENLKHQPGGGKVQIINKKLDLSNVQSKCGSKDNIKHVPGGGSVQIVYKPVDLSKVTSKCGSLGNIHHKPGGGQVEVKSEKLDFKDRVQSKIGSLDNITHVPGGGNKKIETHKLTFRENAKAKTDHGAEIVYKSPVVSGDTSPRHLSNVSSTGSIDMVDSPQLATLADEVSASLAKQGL
# Assay: qHTS for Inhibitors of Tau Fibril Formation, Thioflavin T Binding; further: nearly all actives have a fitted effect of over 55% in size
# Conditions: recombinant tau K18 P301L, heparin-induced fibrillization, ThT fluorescence; series mostly up to 57.4 µM; activity, negative = inhibition: at the top concentration
# How it was run: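 Using a mix of unlabeled (15 uM) and Alexa 594-labeled (0.24 uM) tau K18 P301L, heparin-triggered fibrillization over 6 hr at 37 C was scored by ThT fluorescence.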
# On the % scale 0 is the no-effect control and ±100 the full control effect; potency means the concentration at half of the fitted maximal effect; tags describe the fitted curve by direction and shape.
SMILES,Potency,"activity, negative = inhibition"
CC(=O)N1CCc2nc3sc(C(=O)Nc4ccc(Cl)cc4F)c(N)c3c(C(F)(F)F)c2C1,"inconclusive: 2.24 µM [inhibitor, full curve]",–
CSc1nsc2nc(=O)c(/C=C3\C=Nc4ccccc43)c(N)n12,"inconclusive: 6.31 µM [inhibitor, partial curve]",–
CCN1CC=C2C(C#N)=C(N)C(C#N)(C#N)[C@H](c3ccoc3)[C@H]2C1,"inconclusive: 25.1 µM [inhibitor, partial curve]",–
CCOc1ccc(NC(=O)CSc2ncc3c(n2)-c2ccccc2N(Cc2ccccc2C)S3(=O)=O)cc1,"inconclusive: 0.0562 µM [activator, full curve, poor fit]",–
COc1cccc(/C=C/C(=O)Nc2ccc3nc(N4CCN(C)CC4)cc(C)c3c2)c1OC,active: 5.01 µM,–
Cc1ccc(O)c(NC(=O)c2cc3nc4c(c(C(F)(F)F)n3n2)CCc2ccccc2-4)c1,"inconclusive: 5.62 µM [inhibitor, partial curve]",–
CC1(C)CC(CCC(=O)NC(=S)Nc2ccccc2Cl)C(=O)O1 (stereo not given),–,inactive: 0.8%
Cc1ccc2c(c1C)NC(=O)C21N2CCCC2C(C(=O)c2ccc3ccccc3c2)C12C(=O)Nc1ccccc12 (stereo not given),"inconclusive: 10 µM [inhibitor, partial curve, poor fit]",–
Cc1ccc(-n2c(=O)cc(N3CCN(Cc4ccccc4)CC3)[nH]c2=O)cc1,"inconclusive: 28.2 µM [inhibitor, single point]",–
CCCn1c2ccccc2c2cnn(CC(=O)N(CCCOC)Cc3ccco3)c(=O)c21,–,inactive: -7.19%
COc1cccc(C=Nc2ccc(C)c(F)c2)c1O,"inconclusive: 17.8 µM [inhibitor, single point]",–
O=C1CC(c2ccc(O)cc2)Oc2ccccc21 (stereo not given),"inconclusive: 12.6 µM [inhibitor, partial curve]",–
CCc1ccccc1N1CC(c2nc3ccccc3n2CCCCOc2ccccc2)CC1=O (stereo not given),"inconclusive: 20 µM [inhibitor, partial curve]",–
CCOc1ccc(N/C(C)=C/C(=O)c2ccc(C)o2)cc1,"inconclusive: 14.1 µM [inhibitor, partial curve]",–
COc1cc(SC)ccc1C(=O)Nc1cccc(C)n1,"inconclusive: 10 µM [inhibitor, partial curve]",–
Cc1ccc2nsnc2c1N,"inconclusive: 28.2 µM [inhibitor, single point]",–
CCCc1cc(=O)[nH]c(SCc2ccc(F)cc2)n1,–,inactive: 5.32%
COc1cc(S(=O)(=O)Nc2ccc3cn[nH]c3c2)ccc1Cl,–,inactive: -3.02%
CCn1c(COc2ccc(OC)cc2)nc2ccccc21,"inconclusive: 17.8 µM [inhibitor, partial curve]",–
CCOC(=O)C1=C(C)NC(=O)NC1c1cccc(OC)c1OCc1ccccc1Cl (stereo not given),–,inactive: -15.9%
COc1ccc(CCNC(=O)c2ccc3c(c2)ncn3-c2ccc(C)cc2C)cc1OC,"inconclusive: 1 µM [inhibitor, partial curve]",–
Cc1c(C(=O)N2CCN(c3ccccc3)CC2)sc2nc3n(c(=O)c12)CCC3,"inconclusive: 20 µM [inhibitor, partial curve]",–
CCCCc1nc2c(c3c1C[C@H](C)OC3)CN(C(=O)Nc1ccc(OC)cc1)CC2,–,inactive: 3.05% [at 11.5 µM]
CCn1c(SCC(=O)Nc2cccc(NC(=O)c3ccco3)c2)nnc1-c1cccs1,"inconclusive: 28.2 µM [inhibitor, single point]",–

SMILES,Potency,"activity, negative = inhibition"
CC(=O)c1cc2c(cc1N/C(=N/S(=O)(=O)c1ccc(C)cc1)c1ccc(F)cc1)OCO2,"inconclusive: 12.6 µM [activator, partial curve, poor fit]",–
COCCSc1ccccc1C(=O)Nc1ccc(Br)cc1,–,inactive: -1.98%
CCNC(=O)c1sc(=S)n(-c2ccc(C)cc2)c1N,–,inactive: -15.2%
CCCn1c(=O)c(C(=O)NCc2ccc(OC)c(OC)c2)c(O)c2ccccc21,"inconclusive: 35.5 µM [inhibitor, partial curve]",–
COC(=O)CSc1nnc(CNC(=O)c2ccccc2OC)n1C,–,inactive: -1.95%
COc1cccc(CNC(=O)C2CCN(c3nnc(-n4c(C)ccc4C)s3)CC2)c1OC,"inconclusive: 39.8 µM [inhibitor, single point]",–
CCCCCCCCCCCCCCCC(=O)NCCc1ccc(O)c(O)c1,inactive,–
COc1ccc(-c2nc(CS(=O)CC(=O)N3CCc4ccccc4C3)c(C)o2)cc1 (stereo not given),"inconclusive: 20 µM [inhibitor, partial curve]",–
CCOc1ccc(-c2nc(CSCC(=O)NCc3ccc(Cl)cc3)c(C)o2)cc1,"inconclusive: 7.94 µM [inhibitor, partial curve]",–
CCN(CC)CCNC(=O)c1ccc2c(=O)n3nc(Nc4ccccc4OC)sc3nc2c1,"inconclusive: 39.8 µM [inhibitor, single point]",–
CC(C)CC(c1nnnn1Cc1ccccc1)N1CCN(C(=O)c2ccco2)CC1 (stereo not given),–,inactive: -12.5%
O=C(N/N=C/c1cc(Br)cs1)c1ccc2c(c1)OCCO2,"inconclusive: 11.2 µM [inhibitor, partial curve]",–
CCN1C(C(=O)c2ccccc2)=C(OC(=O)c2ccccc2OC)c2ccccc2S1(=O)=O,"inconclusive: 11.2 µM [inhibitor, partial curve]",–
Cc1nc(-c2ccccc2)sc1C(=O)NN,–,inactive: -10.8%
C/C(=N\Nc1ccc(Cl)c(C(=O)O)c1)c1cccc([N+](=O)[O-])c1,"inconclusive: 14.1 µM [inhibitor, partial curve]",–
O=C(C1=C(O)C(=O)N(CCOCCO)C1c1cccs1)c1cccs1 (stereo not given),–,inactive: -10%
CCOC(=O)Nc1nnc(/C=C/c2ccc(OC)cc2)s1,"inconclusive: 3.16 µM [inhibitor, full curve, poor fit]",–
O=C(c1ccc(S(=O)(=O)N2CCCCCC2)cc1)N1CCN(c2ccccn2)CC1,–,inactive: -12.5%
O=C(/C=C/c1ccccc1)Nc1sc2c(c1C(=O)O)CCC2,active: 10 µM,–
Cc1ccc(/C=N/NS(=O)(=O)c2ccccc2)o1,–,inactive: -9.69%
Cc1cc(C)c([N+](=O)[O-])cc1-c1ccc(/C=N/NC(=O)c2nonc2N)o1,active: 5.01 µM,–
OCCCc1nc2n(n1)C(c1cccs1)C=C(c1ccccc1)N2 (stereo not given),"inconclusive: 22.4 µM [activator, single point]",–
Cc1ccc(NC(=O)CSc2nc3ccccc3nc2N2CCOCC2)cc1,"inconclusive: 35.5 µM [inhibitor, single point]",–
CCc1cc2c(cc3c(=O)n(CC(=O)NC4CCC(C)CC4)ncn32)s1 (stereo not given),–,inactive: 6.11%

SMILES,Potency,"activity, negative = inhibition"
COc1ccc(/C=N\NC(=O)c2cccc(Br)c2)c(OC)c1,–,inactive: -3.85%
Cc1ccccc1NC(=O)c1ccc(COc2ccc3c(C)cc(=O)oc3c2)cc1,"inconclusive: 0.282 µM [inhibitor, full curve]",–
S=C(c1ccc(-c2ccccc2Cl)o1)N1CCOCC1,active: 25.1 µM,–
CCN(CC)c1ccc(C=Nc2ccc(C)cc2C)c(O)c1,"inconclusive: 22.4 µM [inhibitor, partial curve]",–
CCOc1ccc(OCc2ccc(C(=O)Nc3cccnc3)o2)cc1,"inconclusive: 8.91 µM [inhibitor, partial curve]",–
COc1cc(OC)c(NS(=O)(=O)c2ccc3c(c2)CCCN3C(C)=O)cc1Cl,–,inactive: 2.24%
CN(C)c1oc(-c2ccc(Cl)cc2)nc1S(=O)(=O)c1ccccc1,"inconclusive: 44.7 µM [inhibitor, single point]",–
COc1ccc(S(=O)(=O)N2CCN(Cc3nc4ccc(C)cc4o3)CC2)cc1Cl,–,inactive: -4.43%
CCC(C(=O)NCCc1ccccc1)n1nc(C)n2c(cc3sccc32)c1=O (stereo not given),–,inactive: 3.68%
COc1ccc(C2C(C(=O)c3ccco3)=C(O)C(=O)N2CCOCCO)cc1OC (stereo not given),"inconclusive: 20 µM [inhibitor, single point]",–
C#CCn1cc(/C=N/NC(=O)c2cc3ccccc3o2)c2ccccc21,"inconclusive: 10 µM [inhibitor, partial curve]",–
CCCc1nc(SCc2cc(=O)c3ccc(C)c(C)c3[nH]2)n[nH]1,–,inactive: -0.756%
O=C(c1cccs1)N1CCN(Cc2ccccn2)CC1,–,inactive: 13%
Cc1ccc(C)n1-c1cc(S(=O)(=O)N2CCOCC2)ccc1N1CCCC1,"inconclusive: 14.1 µM [inhibitor, single point]",–
COc1ccc(NC(=O)c2cc(-c3ccc(C)o3)nc3ccccc23)cc1OC,"inconclusive: 39.8 µM [inhibitor, single point]",–
CCc1ccccc1NC(=O)C1CCCN(C(=O)c2cnn(-c3ccccc3)c2-n2cccc2)C1 (stereo not given),–,inactive: -12.2%
O=C(c1ccc(Cl)cc1)c1oc2ccccc2c1CS(=O)c1ccccc1 (stereo not given),"inconclusive: 25.1 µM [inhibitor, partial curve, poor fit]",–
N/C(=N\NC(=O)c1cccs1)c1cc2cc(Cl)ccc2oc1=O,"inconclusive: 15.8 µM [inhibitor, partial curve]",–
O=C(c1ccc(S(=O)(=O)N2CCCCCC2)cc1)N1CCC(CN2C(=O)c3cccc4cccc(c34)C2=O)CC1,"inconclusive: 6.31 µM [inhibitor, partial curve, poor fit]",–
CCOC(=O)CN1CC23C=CC(O2)C(C(=O)NC2CCCC2)C3C1=O (stereo not given),"inconclusive: 4.47 µM [activator, single point]",–
COc1ccc(C2CC(=O)N(Cc3cccc(F)c3)c3ccccc3S2)cc1 (stereo not given),"inconclusive: 44.7 µM [inhibitor, single point]",–
CCOC(=O)c1ccc(Nc2ccc([N+](=O)[O-])cn2)cc1,"inconclusive: 2.24 µM [inhibitor, full curve]",–
